Source: publication PMC4336329 (PLoS ONE, 2015)
The campaign covered roughly 310,000 compounds. About 14,000 (4.5%) showed an effect of 50% or more. Effects have a minus sign here. The list shows a part of the results.

molecular target: human ether-à-go-go-related gene (hERG) potassium channel (human, UniProt Q12809); test: primary screen, population patch clamp on CHO cells stably expressing hERG
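Also: peak tail current of the secondary pulse compared with the same well before compound.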

Sequence of human ether-à-go-go-related gene (hERG) potassium channel (Q12809 whole entry, looked up): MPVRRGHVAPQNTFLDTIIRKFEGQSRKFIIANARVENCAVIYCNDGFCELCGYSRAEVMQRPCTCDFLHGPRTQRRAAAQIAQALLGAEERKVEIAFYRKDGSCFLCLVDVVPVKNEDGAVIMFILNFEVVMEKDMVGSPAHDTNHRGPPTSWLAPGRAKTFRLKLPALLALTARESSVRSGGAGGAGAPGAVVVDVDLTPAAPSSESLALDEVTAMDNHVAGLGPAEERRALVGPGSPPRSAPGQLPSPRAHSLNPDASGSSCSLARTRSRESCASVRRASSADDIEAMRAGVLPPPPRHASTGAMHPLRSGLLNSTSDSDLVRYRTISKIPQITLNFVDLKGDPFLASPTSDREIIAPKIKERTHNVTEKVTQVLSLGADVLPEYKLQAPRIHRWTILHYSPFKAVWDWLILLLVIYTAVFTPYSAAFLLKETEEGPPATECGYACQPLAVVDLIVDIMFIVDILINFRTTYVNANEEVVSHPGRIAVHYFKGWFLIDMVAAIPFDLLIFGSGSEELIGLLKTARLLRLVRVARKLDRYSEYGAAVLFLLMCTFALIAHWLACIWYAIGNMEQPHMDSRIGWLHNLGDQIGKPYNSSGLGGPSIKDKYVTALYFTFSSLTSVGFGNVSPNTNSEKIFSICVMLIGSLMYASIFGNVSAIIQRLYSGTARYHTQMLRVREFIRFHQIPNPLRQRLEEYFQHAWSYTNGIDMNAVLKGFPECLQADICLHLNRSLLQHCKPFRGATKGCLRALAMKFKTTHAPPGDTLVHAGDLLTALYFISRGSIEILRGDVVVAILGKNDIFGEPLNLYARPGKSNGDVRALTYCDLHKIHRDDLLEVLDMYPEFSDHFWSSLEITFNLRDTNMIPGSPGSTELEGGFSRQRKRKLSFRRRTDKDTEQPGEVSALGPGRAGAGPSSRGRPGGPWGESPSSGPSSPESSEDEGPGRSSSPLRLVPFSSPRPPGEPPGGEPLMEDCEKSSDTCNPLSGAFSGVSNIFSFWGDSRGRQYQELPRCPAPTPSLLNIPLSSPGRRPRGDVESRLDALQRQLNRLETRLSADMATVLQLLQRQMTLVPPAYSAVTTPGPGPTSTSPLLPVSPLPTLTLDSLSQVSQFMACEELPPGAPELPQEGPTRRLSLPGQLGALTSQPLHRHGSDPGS

Compound	hERG current change (%, negative = inhibition) at 10uM
CCCCCCn1c(SCC(=O)c2c(N)n(C)c(=O)n(C)c2=O)nc2ccccc21	-1.34%
CCO/C=C1/C(=O)N(CC)c2ccccc21	-8.33%
Cc1ccc(C)c(OCCC(=O)N(C)CC(=O)Nc2c(C)cccc2C)c1	-8.69%
Cc1nnsc1S(=O)c1ccc(Br)cc1 (stereo not drawn)	-1.16%
COc1ccc(C(CNC(=O)c2cncc(Br)c2)N(C)C)cc1 (stereo not drawn)	-1.84%
OC1(C2(O)CC(c3ccccc3)ON2)CCCCC1 (stereo not drawn)	3.57%
COc1cc(C2NC(=O)C(C#N)=C(S)N2c2ccc(C)cc2)ccc1OC(C)C (stereo not drawn)	16.2%
Cc1nc2cc(N3CCOCC3)c(NC(=O)C3CC3)cc2c(=O)n1Cc1ccccc1	-29.3%
Cc1c(N(C(=O)Cc2cccs2)C2(C(=O)NC3CCCC3)CCCCC2)c(=O)n(-c2ccccc2)n1C	-49.7%
C/C(CC(C)C)=N\NC(=O)Nc1ccccc1	-40.8%
Cn1c(=O)c2c(ncn2CC(=O)N(Cc2ccccc2)c2ccccn2)n(C)c1=O	-50.7%
Clc1ccc(Cn2cc(/C=N/n3cnnc3)c3ccccc32)cc1	-14.5%
O=C(c1ccc(-n2cnnn2)cc1)N1CCOCC1	-1.64%
CCCCC(CC)CNS(=O)(=O)c1ccc2c(c1)CCN2C(=O)CCC(=O)O (stereo not drawn)	-5.1%
O=C(Nc1ccccc1N1CCCCC1)c1cccc(Cl)c1	13.5%
CNS(=O)(=O)c1cccc(C(=O)OC2CCOC2=O)c1 (stereo not drawn)	12.5%
CS(=O)(=O)N1CCc2cc(C(=O)Nc3ccc(O)cc3)ccc21	12.9%
COc1cccc(OC)c1C(=O)N1CCN(Cc2ccc3c(c2)OCO3)CC1	-12%
CC1=Nn2c(nnc2-c2cc(-c3ccccc3)n[nH]2)SC1	1.7%
O=C(CCN1C(=O)c2cccc3cccc(c23)C1=O)NCc1cccnc1	-16.7%
CN(C)c1ccc(C(C(=O)NC2CCCCC2)N(Cc2ccco2)C(=O)c2snc(C(N)=O)c2N)cc1 (stereo not drawn)	-24.2%
COc1ccccc1N1CCN(C2CCCN(C(=O)CCN3CCCCO3)C2)CC1 (stereo not drawn)	8.84%
Cc1ccsc1C(=O)NNC(=O)c1ccc(NS(=O)(=O)c2cccs2)cc1	20.4%

Compound	hERG current change (%, negative = inhibition) at 10uM
O=C(NC1CCCCCCC1)c1cccs1	8.39%
O=C(NC(c1ccccc1)c1ccccc1)C1CCCC1	11.2%
CCOc1ccccc1N1CCN(C(=O)c2cccc(S(=O)(=O)N3CCOCC3)c2)CC1	-11.6%
COCCNC(=O)Cn1cc(/C=N/NC(=O)c2ccc(Oc3ccc(O)cc3)cc2)c2ccccc21	10.5%
Cc1sc2ncnc(N3CCCCC3C)c2c1C (stereo not drawn)	-13.6%
O=C(O)C(NC(=O)c1ccccc1)=C(Cl)Cl	19.6%
COc1cc(S(=O)(=O)NC2CC(C)(C)NC(C)(C)C2)c(OC)cc1Cl	5.37%
Fc1ccc(C2c3cccn3CCN2C(=S)Nc2cccc(F)c2)cc1 (stereo not drawn)	6.02%
CN(C(=O)c1ccncc1)c1ccccc1	20.8%
Cc1cc(C)c2c(n1)sc1c(=O)[nH]c(SCc3ccccc3)nc12	3.41%
Cc1ccccc1CN1CCC(n2nccc2NC(=O)CCCc2ccccc2)CC1	-49.3%
CCOc1ccc(NC(=O)Nc2ccc3c(c2)nc(C)n3C)cc1	1.49%
C/C(=N/NC(=O)CNC(=O)CCc1ccccc1)c1ccc(Cl)c(Cl)c1	10.3%
CCc1nnc(NC(=O)CCS(=O)(=O)c2ccccc2)s1	23.8%
COc1ccc(S(=O)(=O)N[C@@H](Cc2ccccc2)C(=O)N2CC[C@@]3(O)CCCC[C@H]3C2)cc1	-14.9%
COc1ccc(C=O)cc1Oc1nc(Cl)ncc1F	22.6%
Cc1ccc(-c2cc(C(=O)O)c3ccccc3n2)c(C)c1	3.75%
COc1ccc(NC(=O)C(c2ccccc2)N(C)C(=O)c2ccc(=O)[nH]c2)cc1 (stereo not drawn)	10.5%
CC1=C(C(=O)Nc2ccccc2)C(c2ccco2)NC(=S)N1 (stereo not drawn)	22.7%
COc1ccc(-c2nc(C#N)c(N3CCC(C)CC3)o2)cc1	-34.2%
CCCCCCN(C(=O)CCl)c1ccccc1	-3.01%
FC(F)(F)c1cccc(CN2CCN(c3ncccn3)CC2)c1	3.78%
Cc1ccc2nc(NCC(=O)NN)nc(-c3ccccc3)c2c1	3.86%

Compound	hERG current change (%, negative = inhibition) at 10uM
CN(C1CCCCC1)S(=O)(=O)c1ccc2[nH]c(=O)oc2c1	-7.46%
O=C1C(c2ccccc2)C(c2ccccc2)NC(c2ccccc2)C1c1ccccc1 (stereo not drawn)	16.6%
O=C(CSc1nnc(CCc2nc3ccccc3[nH]2)n1-c1ccccc1)NCc1ccccc1	0.84%
CCN1CCCC1CNC(=O)C(=O)Nc1ccccc1OC (stereo not drawn)	-15%
CC(=O)C1=C(O)C(=O)N(c2ccccn2)C1c1ccccc1[N+](=O)[O-] (stereo not drawn)	14.2%
O=C(Nc1ccc(OC(F)F)cc1)c1cc[n+]([O-])cc1	-0.758%
CC(=O)N1CCN(c2ccc(NC(=O)c3ccc(C)c([N+](=O)[O-])c3)cc2)CC1	-8.57%
COc1ccc(OCC(O)CN2CCOCC2)cc1 (stereo not drawn)	15.3%
Cc1cc(Cl)ccc1NNC(=O)c1c(C)noc1C	19.2%
Cc1ccc(NC(=O)c2sccc2C)cc1S(=O)(=O)N(C)C	-20.6%
Cc1cccc(NC(=O)CNC(=O)C23CC4CC(CC(Cl)(C4)C2)C3)n1	-6.02%
Cc1cccc(Cl)c1NNC(=O)Nc1c([N+](=O)[O-])c(C)nn1C	-3.29%
Cc1csc(Nc2ccc(Cl)cc2)[n+]1-c1ccc(Cl)cc1.[Br-]	14.9%
CC(=O)c1cccc(OCC(=O)N(C)CC(=O)Nc2ccc(F)cc2)c1	-8.68%
CC(=O)Nc1ccc(S(=O)(=O)NCc2nc(-c3ccccc3)no2)cc1	14.3%
Cc1cc(C)cc(SCc2noc(C(=O)NC(C)C)c2C(=O)NC(C)C)c1	10.2%
CC(C)c1ccc(N2C(=O)/C(=C/N(C)C)SC2=S)cc1	-14.1%
Cc1c(OCC(=O)NCCCN2CCOCC2)ccc2c1oc(=O)c1ccccc12	-46.6%
Cc1cccc(/N=C/c2c(O)n(Cc3ccc4c(c3)OCO4)c(=O)c3ccccc23)n1	3.15%
CC(NCC(c1ccco1)N1CCCCC1)C(=O)NC1CCCC1.Cl (stereo not drawn)	3.21%
CCOC(=O)CSc1nc2sc(C(=O)O)c(C)c2c(=O)[nH]1	10.7%
O=C(O)C/C(=C\c1cc(Br)cs1)c1nc2ccccc2o1	8.59%
COC(=O)c1ccccc1N=Nc1c(N)n[nH]c1N	14.8%

Compound	hERG current change (%, negative = inhibition) at 10uM
CCN(CCNC(=O)C1CCC(=O)N1Cc1ccc(C)cc1)c1ccccc1 (stereo not drawn)	-23.4%
O=C1CN(c2nc(-c3cccnc3)nc3sc4c(c23)CCCC4)CCN1	-41.5%
CCN(C1CCCCC1)S(=O)(=O)c1ccc(S(=O)(=O)NCc2ccncc2)cc1	-4.63%
CCOC(=O)c1sc(NC(=O)/C=C/c2cnn(C)c2C)c(C(=O)OC(C)C)c1C	1.98%
O=c1[nH]c2ccccc2cc1CN(Cc1cccnc1)S(=O)(=O)c1ccc(Cl)cc1	-56.2%
O=C(NC(=O)c1c(Cl)cccc1Cl)Nc1ccc(Oc2cccnc2)nc1	6.69%
NC(=O)CSc1ccc(-c2ccc(F)cc2)nn1	16.6%
Fc1cccc(NC(=S)Nc2cccnc2)c1	41.5%
CC(=O)c1ccccc1NC(=O)COC(=O)CSCC(=O)Nc1cc(C)on1	-1.32%
COCCn1c(C)nnc1SCC(=O)Nc1ccccc1[N+](=O)[O-]	24.2%
COc1ccc(NC(=S)N2CCCC2)c(OC)c1	11.3%
N#Cc1ccc(/C=C2\CCn3c2nc2cc(C(=O)O)ccc2c3=O)cc1	4.16%
COc1cccc(CNc2cccc3cccnc23)c1O	-12.4%
O=S(=O)(Nc1ccc(-c2cn3ccsc3n2)cc1)c1ccc2c(c1)OCCO2	1.05%
COc1cccc(NC(=O)C2CCCN(S(=O)(=O)c3ccc(-n4cnnn4)cc3)C2)c1 (stereo not drawn)	-9.56%
CC(=O)OC1c2c(ccc3ccc(=O)oc23)OC(C)(C)C1OC(=O)CC(C)C (stereo not drawn)	-30.4%
CC1(C)Cc2c(C#N)c(NCCN3CCOCC3)nc(-c3ccccc3)c2CO1	-17.1%
O=c1c2[nH]c3ccc(F)cc3c2ncn1CCCn1ccnc1	-61.1%
COC(=O)C1C2C=CC3(CN(C4CCCC4)C(=O)C13)O2 (stereo not drawn)	22.3%
C=CCCCCCCCCC(=O)NNC1CC(=O)N(c2ccccc2)C1=O (stereo not drawn)	26.2%
CC(Oc1ccc2c3c(c(=O)oc2c1)CCC3)C(=O)N[C@@H](Cc1ccccc1)C(=O)O (stereo partly drawn)	7.43%
